The whole screen tested about 45,000 compounds, of which about 200 (0.44%) were called active. Another 7% or so got no clear call; they are omitted. The call rests on the fitted dose curve; in most records, active means well fitted activation curve with a large enough effect; inconclusive means small, poorly fitted or top-dose-only effect; inactive means no such curve, though single readings can be large or run the other way. The list shows a part of the results.

The assay is described as follows: qHTS of TDP-43 Inhibitors: NCGC Sytravon Library Screen. Further: 0% is about no effect; nearly all actives have a fitted effect of over 55% in size. The conditions noted are these: yeast TDP-43 toxicity rescue, BacTiter-Glo growth, 24 h; series mostly up to 46.1 µM; growth rescue (activation): at the top concentration. The procedure, abridged:
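TDP-43-expressing yeast, pregrown in raffinose, seeded at OD600 0.02 in galactose medium with compound for 24 hr at 30 deg C. Growth read by BacTiter-Glo luminescence, so rescue of toxicity appears as activation.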
On to `CCN(CCNCC(O)COc1ccccc1C(C)C)c1cccc(C)c1` (stereo not drawn), for which the “growth rescue (activation)” value is inactive: 4.27%. The same measure for `O=C1CCC(CCC(=O)N2CCCC(C(=O)c3cccc(C(F)(F)F)c3)C2)=NN1` (stereo not drawn): inactive: 13.2%. In the case of `O=C(Cc1coc2cc(O)ccc12)NNC(=O)c1cccs1` it was inactive: 11.5%; in that of `COCCNC(=O)CN(c1cc(Cl)ccc1OC)S(=O)(=O)c1ccc(C)c([N+](=O)[O-])c1`, inactive: 8.16%; in that of `Oc1cccc(/C=N/N2CCN(C3c4ccccc4-c4ccccc43)CC2)c1`, inactive: 10.5%. In the case of `COc1ccc(NC(=O)CNc2cc(S(=O)(=O)N3CCOCC3)ccc2NCC2CCCO2)cc1` (stereo not drawn) it was inactive: 0.922%; in that of `CC(=O)Nc1ccc(NC(=O)CSc2ccc([N+](=O)[O-])cn2)cc1`, inactive: -1.76%; in that of `Cc1ccsc1CN(C)CC(=O)Nc1ccccc1C(=O)NC1CC1`, inactive: 7%.

In the case of `CCCNNC(=O)C(O)(c1ccccc1)c1ccccc1`, the “growth rescue (activation)” value is inactive: -7.04%. The same measure for `Cc1cccc(NC(=O)C2CCCN(c3nnc(-n4c(C)ccc4C)s3)C2)c1C` (stereo not drawn): inactive: 11%; for `CCOC(=O)c1nc(Nc2ccccc2C)c2ccccc2n1`: inactive: 11.4%. The same measure for `N#Cc1c(-c2ccccc2)nc(SCC(=O)N(c2ccccc2)c2ccccc2)[nH]c1=O`: inactive: 22.2%; for `COc1ccc(CCn2c(-c3ccc(OC)cc3)nc3c(c(=O)c4ccccc4n3C)c2=O)cc1`: inactive: -1.19%; for `C/C(=N\N1CCN(Cc2ccc(Cl)cc2)CC1)c1ccc(F)cc1`: inactive: 8.88%. The same measure for `CCc1ccc(NC(=O)COc2cccc(-n3cnnn3)c2)cc1`: inactive: 19.6%; for `C=CCOc1c(Br)cc(CNc2ccc(NC(=O)C(C)C)cc2)cc1OCC`: inactive: 27.2%. Turning to `CN(C)c1ccc(CNc2nc(-c3ccccc3)nn2S(C)(=O)=O)cc1`, the “growth rescue (activation)” value was inactive: 9.98%. The same measure for `CC(=O)c1cccc(OCC(O)CN2CCN(C(=O)c3ccco3)CC2)c1` (stereo not drawn): inactive: 10.6%; for `Cc1ccc(/C=C2\CCn3c2nc2cc(C(=O)O)ccc2c3=O)c(C)c1`: inactive: 21%; for `Cc1ccc(C)c(CN2C(=O)c3ccccc3S(=O)(=O)c3ccc(C(=O)N4CCN(C)CC4)cc32)c1`: inactive: 13.1%. The same measure for `CN(CC(=O)Nc1cccc2ccccc12)C(=O)c1ccc(NC(=O)CC#N)cc1`: inactive: 14.2%.

For the compound `O=C1/C(=C/c2ccc(Cl)cc2)NC(=S)N1Cc1cccnc1`, the “growth rescue (activation)” value was inactive: 3.58%. The same measure for `CCCCCCCC(=O)NNC(=O)c1c(O)c2ccccc2n(CCC)c1=O`: inactive: -39.4%. The same measure for `Cc1ccc(C)c(OCC(=O)Nc2ccc(S(=O)(=O)Nc3ncccn3)cc2)c1`: inactive: 0.419%; for `CCc1nc2ccc(C(=O)NCCN3CCNC3=O)cn2c1N(CC)CCOC`: inactive: 8.54%; for `Cc1ccc(S(=O)(=O)N2CCOCC2)cc1C(=O)N(C)CCOc1ccc(Cl)cc1`: inactive: -6.92%. In the case of `COC(=O)C(C)NC(=O)c1ccc(C(C)(C)C)cc1` (stereo not drawn) it was inactive: 12.1%.

Turning to `COc1ccc(S(=O)(=O)N(CC(=O)N2CCCC2)Cc2ccccc2)cc1`, the “growth rescue (activation)” value is inactive: 21%. Take `COc1ccc(NC(=O)N2CCCC(C(=O)NCCc3ccccc3)C2)cc1` (stereo not drawn): the “growth rescue (activation)” value is inactive: 22.9%. In the case of `CSc1ccc(CN2CCC(C)(Oc3ccc(-n4ccnc4)cc3)C2)cc1` (stereo not drawn) it was inactive: -3.49%; in that of `CC(=O)c1c(C)[nH]c(C(=O)NCCc2c[nH]c3ccccc23)c1C`, inactive: -3.48%; in that of `CC(C)(C)NC(=O)CN(C(=O)c1snc(C(=O)NC2CCCCC2)c1N)c1ccccc1F`, inactive: 18.4%.

As for `NC(=O)Cc1ccc(Nc2nnc(-c3ccccc3)c3ccccc23)cc1`, the “growth rescue (activation)” value was inactive: 11.2%. The same measure for `COc1ccc(N2CCN(C(=O)[C@@H](NC(=O)c3cc(OC)cc(OC)c3)C(C)C)CC2)cc1`: inactive: 6.8%; for `Cc1noc(C)c1COC(=O)CCC(=O)c1ccc(F)cc1`: inactive: 26.8%; for `CCN(C(=O)COc1ccc(C(=O)c2ccccc2)cc1)c1ccccc1`: inactive: 29.5%. On to `Cc1ccc(NC(=O)CNc2ccc(Cl)c(Cl)c2)cc1S(=O)(=O)N(C)C`, for which the “growth rescue (activation)” value is inactive: 8.67%. The same measure for `NC(=O)N=Nc1c2[nH]c3ccccc3nc-2c2ccccc12`: inactive: 3.45%; for `C=CCC1(CC=C)CCCN1C(=O)c1cc(COc2cccc(C(F)(F)F)c2)on1`: inactive: 9.66%. In the case of `O=C(Cn1ncc2c(=O)oc3ccccc3c21)NCc1cccnc1` it was inactive: -9.05%; in that of `Cc1ccc(NC(=S)NC(=O)c2ccc(Br)o2)c(C)c1`, inactive: 9.59%; in that of `N/C(=C/C(=O)c1ccccc1O)C(F)(F)F`, inactive: -0.457%.

With `Cc1cc(N2CCCCC2)nc(NCc2ccccc2)n1`, the “growth rescue (activation)” value was inactive: 13.7%. The same measure for `Cc1ccc[n+](C(C)C(=O)Nc2ccc([N+](=O)[O-])cc2C)c1` (stereo not drawn): inactive: 10.7%; for `Cc1ccc(S(=O)(=O)NCC(=O)N(CC(=O)NCC2CCCO2)Cc2ccco2)cc1` (stereo not drawn): inactive: 5.9%.

With `CC1(C(=O)NS(=O)(=O)c2ccccc2)CCN1C(=O)CC1CCCCC1` (stereo not drawn), the “growth rescue (activation)” value is inactive: 3.4%. In the case of `Cn1cc(C(=O)C(=O)NC2CC2)c2ccccc21` it was inactive: -4.46%; in that of `COCCCNC(=S)N1CCN(C)CC1`, inactive: -1.58%. `CC(=O)Nc1ccc(N(C(=O)Cc2c[nH]c3ccccc23)C(C(=O)NC2CCCCC2)c2ccco2)cc1` (stereo not drawn): the “growth rescue (activation)” value was inactive: 4.93%. In the case of `CCOc1ccc(-n2cnnn2)cc1S(=O)(=O)N1CCC(C)CC1C` (stereo not drawn) it was inactive: -3.98%; in that of `Cc1cc(C)c(C(=O)N(C)CC2CCCN(CCc3ccccc3F)C2)o1` (stereo not drawn), inactive: 14.7%; in that of `C=CCn1c(OCc2ccccc2)n[nH]c1=S`, inactive: -1.42%. The same measure for `Cc1ccc(C(O)c2ncc(-c3ccc(Cl)cc3)[nH]2)cc1` (stereo not drawn): inactive: 9.21%.

For the origin of these results see PubChem BioAssay AID1347073 (National Center for Advancing Translational Sciences (NCATS), 2019).
